From the RNAGym collection of RNA variant scans (doi:10.7554/elife.90254) come the findings set out here.

Read counts are not given, so values of variants with three or more changes are uncertain.

First the molecules themselves.
B1: OR4K15 (parent)
chain: GUUAACGGUCAUAGGCCAUGGAAACUAGGAGCACCAUUUCGCUGCCAGUGAAGAAAUGAACAAAGAAAAUCUGGGCCAGGCAGGCAUCAAAAGAAAUAGUCUUGCGCUCAACCAGAAAGUCUGUAAUCAUUUUAAGGGUA

In the data set the parent is B1. As to the kind of experiment: self-cleavage, relative activity (ratio to wild type); higher = more cleavage; in vitro, sequencing; the parent is a self-cleaving ribozyme.
As for GUUAACGGUCAUAGGCCACGGAAACUAGGAGCACCAUUCCGCUGCCAGUGAAGAAAUGAACAAAGAAAAUCUGGGCCAGGCAGGCAACAAAAGAAAUAGUCUUGCGCUCAACCAGAAAGUCUGUAAUCAUUUUAAGGGUA [U19C U39C U87A], the self-cleavage amounted to 2.09.

With GUUAACGGUCAUAGGCCACGGAAACUAGGAGCACCAUUUCGCUGCCAGUGAAGAAAUGAACAAAGAAAAUCUGGGCCAGGCAGGCAUCAAAAGAAAUAGUCUUGCGCUCAACCAGAAAGUCUGUAGCCAUCUUAAGGGUA [U19C A126G U127C U131C], the self-cleavage was 0.52.

Regarding GUUAACGGUCAUAGGCCACGGAAACUAGGAGCACCAUUUCGCUGCCAGUGAAGAAAUGAACAAAGAAAAUCUGGGCCAGGCAGGCAUCAAAAGGGAUAGUCUUGCGCUCAACCAGAAAGUCAGUAAUCAUUUUAAGGGUA [U19C A94G A95G U122A], the self-cleavage stood at 2.02.

Consider GUUAACGGUCAUAGGCCACGGAAACUAGGAGCACCACUUCGCUGCCGGUGAGGAAAUGAACAAAGAAAAUCUGGGCCAGGCAGGCAUCAAAAGAAGUAGUCUUGCGCCCAACCAGAAAGUCUGUAAUCAUUUUAAGGGUA [U19C U37C A47G A52G A96G U108C], for which the self-cleavage worked out at 0.02.

As for GUUAACGGUCAUAGGCCACGGAAACUAGGAGCACCACUUCGCUGCCAGUGAGGAAAUGAACAAAGAAAAUCUGGGCCAGGCAGGCACCAACAGAAAUAGUCUUGCGCUCAACCAGAAAGGCUGUAAUCAUUUUAAGGGUA [U19C U37C A52G U87C A91C U120G], the self-cleavage worked out at 1.11.

For the variant GUUAACGGUCAUAGGCCACGGAAACUAGGACCACCAUUUCGCCGCCAGUGAAGAAAUGAACAAAGAAAAUCUGGGCCAGGCAGGCACCAAAAGAAAUAGUCUUGCGCUCAACCAGAAAGUCUGUAAUCAUUUUAAGGGUA [U19C G31C U43C U87C], the self-cleavage amounted to 1.6.

Take GUUAACGGUCAUAGGCCACGGAAACUAGUAGCACCAUUUCGCUGCCUGUGAAGAAAUGAACAAAGAAAAUCUGGGCCAGGCAGGCAUCAAAAGAAAUAGUCUUGCGCUCAACCAGAAAGUCUGUAAUCAUUUUAAGGGUA [U19C G29U A47U]: the self-cleavage is 0.88.

In the case of GUUAACGGUCAUAGGCCACGGAAACUAGGAGCACCAUUUCGCUGACAGUGAAGAAAUGAACAAAGAAAAUCUGGGCCAGGCAGGCAUCAAAAGAAAUAGUCUUGCGCCCAACCAGAAGGUCUGUAAUCCUUUUAAGGGUA [U19C C45A U108C A118G A129C], the self-cleavage worked out at 0.01.

GUUAACGGUCAUAGGCCACGGAAACUAGGAGCACCAUCUCGCUGCCAGUGAAGAAAUGAACAAAGAAAACCUGGGCCAGGCAGGCAUCAAAAGAAAUAGUCUUGCGCUCAACCAGAAAGUCUGUAAUCAUUUUAAGGGUA [U19C U38C U70C]: the self-cleavage is 0.67.

Turning to GUUAACGGUCAUAGGCCACGGAAACUAGGAGCACCAUUUCGCUGCCAGUGAAGAAAUGAACAAAGAAAAUUUGGGCCAGGCAGGCAUCAAAAGAAAUAGUCUUGCGCUCAACCAGAAAGUCUGUAAUCAUUCUAAGGGUA [U19C C71U U132C], the self-cleavage worked out at 0.2.

Take GUUAACGGUCAUAGGCCACGGAAACUAGGAGCACCAUUUCGCUGCCAGUGAAGAAAUGAACAAAGAAAUUCAGGGCCAGGCAGGCAUCAAAAGAAAUAGUCUUGCGCUCAACCAGAAAGUCCGUAAUCAUUUUAAGGGUA [U19C A69U U72A U122C]: the self-cleavage came to 0.27.

On to GUUAACGGUCAUAGGCCACGGAAACUAGGAGCACCAUUUCCCUGCCAGUGAAUAAAUGAACAAAGAAAAUCUGGGCCAGGCAGGCAUCAAAAGAAAUAGUCUUGCGCUCAACCAGAAAGUCUGUAAUCAUUUUAAGGGUA [U19C G41C G53U], for which the self-cleavage worked out at 0.62.

Regarding GUUAACGGUCAUAGGCCACGGAAACUAGGAGCACCAUUUCGCUGCCAGUGAAGAAAUGAACAAAGAAAAUCUGGGCCAGGCAGGCAUCAAAGGAAAUAGUCUUGCGCUCAACCAGAGAGCCUGUAAUCAUUUUAAGGGUA [U19C A92G A117G U120C], the self-cleavage stood at 0.18.

For the variant GUUAACGGUCAUAGGCCACGGAAACUAGGAGCACCAUUUCGCUGCCAGUGAAGAAAUGAACAAAGAAAAUCUGGGCCAGGCAGGCAUCUAAAGAAACAGUCUUGCGCUCAACCAGAAAGUCUGUAAUCAUUUUAAGGGUA [U19C A89U U97C], the self-cleavage came to 0.98.

As to GUUAACGGUCAUAGGCCACGGAAACUAGGAGCACCAUUUCGCUGCCAGUGAAGAAAUGAACAAAGAAAAUCUAGGCCAGGCAGGCAUCAAAGGAAAUAGUCUUGCGCCCAACCAGAAAGUCUGUAAUCAUUUUAAGGGUA [U19C G73A A92G U108C], the self-cleavage was 0.02.

For the variant GUUAACGGUCAUAGGCCACGGAAACUAGGAGCACCACUUCGCCGCCAGUGGAGAAAUGAACAGAGAAGAUCUGGGCCAGGCAGGCAUCAAAAGAAAUAGUCUUGCGCUCAACCAGAAAGUCUGUAAUCAUUUUAAGGGUA [U19C U37C U43C A51G A63G A68G], the self-cleavage worked out at 1.73.

As to GUUAACGGUCAUAGGCCACGGAAACUAGGAGCACCAUUUCGCUGCCAGUAAAGAAAUGAAUAAAGAAAAUCUGGGCCAGGCAGGCAUCAAAAGAAAUAGUCUUGCGCUCAACCAGAAAGUCUGUAAUCAUUUUAAGGGUA [U19C G50A C61U], the self-cleavage was determined as 1.9.

As for GUUAACGGUCAUAGGCCACGGAAACUAGGAGCACCACUUCGCCGCCAGUGAAGAAAUGAACAAAGAGAAUCUGGGCCAGGCAGGCAUCAAGAGAAAUGGUCUUGCGCUCAACCAGAAAGUCUGUAAUCAUUUUAAGGGUA [U19C U37C U43C A67G A91G A98G], the self-cleavage was found to be 0.83.

On to GUUAACGGUCAUAGGCCACGGAAACUAGGAGCACCACUUCGCUGCCAGUGAAGAAAUGAACAAAGAAAAUCUGGGCCAGGCAGGCAUCAAAAGAAGUAGUCUUGCGCUCAACCAGAAAGUCUGUAAUCAUUUUAGGGGUA [U19C U37C A96G A135G], for which the self-cleavage is 1.35.

Regarding GUUAACGGUCAUAGGCCACGGAAACUAGGAGCACCAUUUCGAUGCCAGUGAAGAAAUGAACAAAGAAAAUCUGGGCCAGGCAGGCAGCAAAAGAAAUAGUCUUGCGCUCAACCAGAAAGUCUGUAAACAUUCUAAGGGUA [U19C C42A U87G U127A U132C], the self-cleavage was determined as 0.99.

With GUUAACGGUCAUAGGCCACGGAAACUAGGAGCACCACUUCGCUGCCAGUGAAGAAACGAACAAAGAAAAUCUGGGCCAGGCAGGCAUCAAAAGAAAUAGUCUUGCGCUCAACCAGAAAGUCUGUAAUCGUUCUAAGGGUA [U19C U37C U57C A129G U132C], the self-cleavage stood at 2.35.
